Experimental findings from PubChem BioAssay AID1240 (Sanford-Burnham Center for Chemical Genomics, 2008) are described below.

Out of some 50,000 compounds screened, about 800 (1.6%) showed an effect of 50% or more. The list shows a part of the results.

This assay concerns the target Bcl-2-like protein 10 (Homo sapiens) (UniProt Q9HD36). As to the kind of experiment: Phenotype converters, Bcl-B/TR3 peptide binding displacement, primary biochemical FP (AID 1240).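 Also: 0% = Bcl-B with tracer peptide and DMSO and 100% = tracer peptide lacking Bcl-B.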 As to conditions: GST-Bcl-B / FITC-TR3 peptide fluorescence polarization; stronger effect = higher value; compound at 3.75 mg/L.
Sequence of UniProt Q9HD36 (Q9HD36 whole entry, looked up): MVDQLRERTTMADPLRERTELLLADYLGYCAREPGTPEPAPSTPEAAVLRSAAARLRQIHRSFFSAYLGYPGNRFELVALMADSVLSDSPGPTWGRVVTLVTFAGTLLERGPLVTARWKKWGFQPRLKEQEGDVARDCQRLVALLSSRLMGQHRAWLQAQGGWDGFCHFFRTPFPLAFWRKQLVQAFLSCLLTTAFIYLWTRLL
Take `O=C(c1ccc(I)cc1)N1CCN(c2ccccc2)CC1`: the displacement was -9.9%.
Then `Cc1ccccc1NC(=O)CSc1ccc(Cl)cc1Cl`, with 4.2%.
Then `CN(C)c1cccc(NC(=O)C(c2ccccc2)c2ccccc2)c1`, with -10.3%.
In the case of `COc1ccccc1C1/C(=C(\O)c2ccc(Cl)cc2)C(=O)C(=O)N1c1cccnc1` (stereo unspecified), the displacement is -1.5%.
Then `CCOC(=O)c1c(NC(=O)/C=C/c2cccs2)sc2c1CCCC2`, with -3.1%; and `O=C(NCc1ccncc1)C(=O)Nc1ccccc1Cl`, with -5.1%.
Then `Cc1nc2cc(NCc3ccc(N(C)C)cc3)ccc2n1Cc1ccccc1`, with 10.4%; and `NC(=O)SCC(=O)Nc1ccccc1Cl`, with -2.4%; and `O=C1N=C(N2CCOCC2)S/C1=C\c1c(Cl)cccc1Cl`, with -0.6%.
The same measure for `CC1(C)CC(=O)C=C(NCCN2CCN(C(=S)Nc3ccccc3)CC2)C1`: -6%; for `COc1ccccc1OCCCCCCc1c(C)n[nH]c1C`: 12.2%; for `CC1=C(C(=O)OCCOc2ccccc2)C(c2ccc(C)cc2)C2=C(CCCC2=O)N1` (stereo unspecified): 2.6%.
`O=C(COc1ccccc1Cl)N/N=C/c1ccc(-c2ccccc2[N+](=O)[O-])o1`: the displacement was 2.6%.
The same measure for `COc1ccc(C2/C(=C(\O)c3ccc(Cl)cc3)C(=O)C(=O)N2c2cccnc2)c(OC)c1` (stereo unspecified): -7.1%.
The same measure for `CCn1c(-c2cccc(Cl)c2)n[nH]c1=S`: 10.4%; for `Cc1ccc(C)c(-c2cc(C(=O)NN)c3ccccc3n2)c1`: -9%.
In the case of `Cc1ccc(S(=O)(=O)N(CCc2ccccc2)CC(=O)Nc2ccc(Cl)cc2Cl)cc1`, the displacement amounted to 13.2%.
For the compound `COc1cccc(-c2nnc(-c3ccncc3)o2)c1`, the displacement is 6.6%.
The same measure for `COc1ccc(OC)c(C(C)NC=O)c1` (stereo unspecified): 2.3%; for `Cc1ccc(-c2nc3ccccc3s2)cc1NC(=O)c1cccc(I)c1`: 1.2%.
The same measure for `COc1cc(NS(=O)(=O)c2cc(Cl)ccc2Cl)c(OC)cc1Cl`: -2%; for `O=C(Nc1ccc(NC(=O)c2ccc(Cl)cc2Cl)cc1)c1ccc(Cl)c(Cl)c1`: 9.3%; for `COc1cc2c(cc1OC)C(C)N(C(=O)C1COc3ccccc3O1)CC2` (stereo unspecified): 2.3%.
The same measure for `CCOc1ccc(S(=O)(=O)N2CCCCCC2)c2ccccc12`: 1%; for `O=c1c(=N/Nc2ccccc2)/c(=N\Nc2ccccc2)c2ccccc12`: 5%.
In the case of `COc1ccc(NC(=O)CN(c2ccc(Cl)cc2)S(C)(=O)=O)cc1OC`, the displacement was found to be 17%.
The same measure for `Cc1cc(/C=N/NC(N)=O)c(C)n1-c1ccc(F)cc1`: 5.7%; for `COc1cc(C(=O)Nc2ccc([N+](=O)[O-])cn2)cc(OC)c1OC`: -7.9%; for `Cn1ccnc1SCC(=O)c1ccc(Br)cc1`: 13.6%.
The same measure for `COc1ccc(-c2cc(C(=O)Nc3cccc(Br)c3)c3ccccc3n2)c(OC)c1`: -5.9%; for `CCCCOC(C)n1cc(Cl)c(=O)[nH]c1=O` (stereo unspecified): 10.4%; for `COc1ccc(/C(N)=N/OC(=O)c2cccc(F)c2)cc1`: -1.8%.
The same measure for `COc1ccc(C2CC(C(F)(F)F)n3ncc(C(=O)N4CCN(Cc5ccccc5)CC4)c3N2)cc1OC` (stereo unspecified): -2.8%; for `Cc1cc(Cc2ccc(NC(=O)Nc3ccccc3)c(C)c2)ccc1NC(=O)Nc1ccccc1`: 5.7%; for `CC(=O)N(/C=C1\Sc2ccccc2C1=O)c1ccc(C)cc1`: 2.4%.
`O=C1N=c2ccccc2=C1N=Nc1nc(O)c(-c2c(O)[nH]c3ccccc23)s1`: the displacement amounted to 22.8%.
Take `CCc1ccccc1NC(=O)c1cc2ccccc2o1`: the displacement was -2.8%.
The same measure for `Cc1ccc(N(CC(=O)N2CCCC2)S(C)(=O)=O)cc1Cl`: 3.9%; for `CCOC(=O)c1c(NC(=O)c2cccs2)sc(C(=O)Nc2cc(C(F)(F)F)ccc2Cl)c1C`: 12.2%; for `O=C(CSc1nc2ccccc2[nH]1)N1CCCCC1`: 4.4%.
Then `CN(C)C=Nc1ncnc2c(C#N)c3n(c12)CCCCC3`, with 1%.
The same measure for `O=C1C2CCCC2=NN1c1ccccc1` (stereo unspecified): 2.5%; for `Cc1ccc(-n2cnc(N)c2C(=O)c2ccc([N+](=O)[O-])cc2)cc1`: 10.9%; for `O=[N+]([O-])c1ccc(N2CCCC2)cc1N1CCCCC1`: 17.8%.
On to `COC(=O)CNC(=O)c1ccccc1F`, for which the displacement came out at 9.1%.
Then `CCOc1cccc(N2C(=O)/C(=C/c3ccc(N(CC)CC)cc3OC)C(=O)NC2=S)c1`, with -60.4%.
Take `Cc1onc(-c2c(Cl)cccc2Cl)c1C(=O)N1CCN(Cc2ccccc2)CC1`: the displacement was determined as 0.2%.
For `O=C1/C(=C\c2ccc(O)c(O)c2)SC(=S)N1c1cccc(C(F)(F)F)c1`, the displacement was determined as 9.3%.
The same measure for `COc1ccc(C2C(C#N)=C(N)Oc3c2sc2ccccc32)c(OC)c1` (stereo unspecified): -16%.
Then `COc1ccc(C(=O)/C=C/Nc2ccc(S(=O)(=O)N=C(N)N)cc2)cc1OC`, with 15.4%.
For the compound `Cc1ccc(N(CC(=O)Nc2c(C)n(C)n(-c3ccccc3)c2=O)S(=O)(=O)c2ccccc2)cc1`, the displacement amounted to 10.7%.
Then `CCOc1ccccc1NC(=O)COc1cccc(Cl)c1`, with -9.3%; and `CCN1C(=O)/C(=C/c2c(NCCCn3ccnc3)nc3c(C)cccn3c2=O)SC1=S`, with 2.9%.
The same measure for `CC1=C(C(=O)Nc2ccc(Cl)cc2)C(c2ccc(C)cc2)NC(=S)N1` (stereo unspecified): -6.2%.
The same measure for `O=[N+]([O-])c1ccc(-c2csc3[n+]2CCS3)cc1`: -23.2%; for `O=C(Nc1cccc(-c2nc3ccccc3s2)c1)c1ccc(S(=O)(=O)N2CCCC2)cc1`: 5.3%.
As for `COc1cc(NC(=O)C(c2ccccc2)c2ccccc2)cc(OC)c1`, the displacement turned out to be 10.7%.
The same measure for `O=C(CSc1nc2ccccc2[nH]1)N/N=C/c1ccccc1F`: -2.6%.
As for `CCOc1cccc(C(=O)Nc2c(C)ccc3nsnc23)c1`, the displacement worked out at 4.5%.
In the case of `CCOC(=O)C(=CNc1ccccc1OCC)C(=O)OCC`, the displacement amounted to 2.7%.
For the compound `CC(=O)C1=C(O)CC(C)(C)CC1=NCCc1ccccc1`, the displacement is -11.2%.
The same measure for `CCOc1ccc(N2C(=O)NC(=O)/C(=C/c3cccc(OC)c3)C2=O)cc1`: 13%; for `CS(=O)(=O)Nc1ccc(S(=O)(=O)N2CCOCC2)cc1`: 8.4%; for `CC1=C(C(=O)Nc2ccc(Br)cc2)C(c2ccccc2Br)NC(=O)N1` (stereo unspecified): -2.5%.
Take `Cn1c(=O)c2c(nc(NCCc3ccccc3)n2C)n(C)c1=O`: the displacement is -7.5%.
As for `Cc1c(C#N)c(N)c(C(=O)c2ccc(Br)cc2)n1-c1ccc(Br)cc1`, the displacement is 0.2%.
The same measure for `COc1cc2ccccc2cc1C(=O)Nc1ccc(S(=O)(=O)Nc2nccs2)cc1`: 2.2%; for `CCCOc1ccc(C(=O)NCc2ccccc2)cc1`: 11%.
Then `NC(=O)c1ccccc1N=Cc1cccc2ccccc12`, with 2.9%; and `Cc1ccn2c(NC(=O)c3ccccc3)c(-c3cccs3)nc2c1`, with 8.5%; and `CCN(CC)CCNc1nc2nonc2nc1NCCN(CC)CC`, with -0.5%.
With `CC(C)CNC(=O)c1ccccc1NC(=O)Cc1ccc(Cl)cc1`, the displacement was 0.4%.
`Cc1sc(NC(=O)c2ccc(-c3ccccc3)cc2)c(C(N)=O)c1C`: the displacement is -5.3%.
With `Cc1ccnc(NC(=O)CSc2nc3ccccc3s2)c1`, the displacement is -8.4%.
The same measure for `O=C1NC(=O)N(c2ccc(Cl)cc2)C(=O)/C1=C/c1ccc(-c2ccc(Cl)c(C(=O)O)c2)o1`: 72.5%.
The same measure for `O=C(CN1C(=O)c2ccccc2C1=O)N1CCN(c2ccccc2Cl)CC1`: 6.9%; for `COc1ccc(C(O)(C(=O)Nc2ccccn2)c2ccc(OC)cc2)cc1`: -27.8%; for `Cc1cc(NC(=O)c2ccc(Cl)cc2)ccc1-c1cc2ccccc2oc1=O`: 14.8%.
The same measure for `COc1ccc(C(=O)Nc2ccccc2C(=O)O)cc1[N+](=O)[O-]`: -10.9%.
Turning to `O=C(NCC1CCCO1)c1cc2n(n1)C(C(F)(F)F)CC(c1cccs1)N2` (stereo unspecified), the displacement was 0%.
The same measure for `Cc1cccc(C)c1NC(=O)C1CC(=O)N(C2CCCCC2)C1` (stereo unspecified): -7.8%.
`CCc1nnc(NC(=O)c2cc(-c3ccc(OC)cc3)nc3ccccc23)s1`: the displacement is -7.4%.
Then `NC1=NC2(CCCCC2)N=C(Nc2cccc(F)c2)N1`, with -1.5%; and `COc1cc(/C=C2/SC(=S)N(C)C2=O)ccc1OCc1cccc2ccccc12`, with 6.6%; and `O=C1C(=O)N(CC2CCCO2)C(c2ccccc2)/C1=C(/O)c1ccccc1` (stereo unspecified), with 1.1%.
Take `CN(C)CC(Oc1ccc(F)cc1)C(=O)O` (stereo unspecified): the displacement was determined as 14.4%.
With `O=C(COc1ccc(Cl)cc1)N1CCN(C(=O)c2cccc(F)c2)CC1`, the displacement was -0.2%.
The same measure for `CCCCOC(=O)c1sc2nc(N)c(C#N)c(-c3ccc(OC)c(OC)c3)c2c1N`: 167%.
For `O=C(c1ccc(F)cc1)N1CCN(C(=O)c2cccs2)CC1`, the displacement came to 10.9%.
Then `COCCNC(=O)c1ccc([N+](=O)[O-])cc1`, with 7.3%; and `COc1cc(C2CC(=O)Nc3c2cc(Br)c2ccccc32)cc(OC)c1OC` (stereo unspecified), with -18.2%.
For the compound `O=C(N/N=C/c1ccccc1Cl)c1ccc(Cl)cc1O`, the displacement was determined as 16.4%.
The same measure for `Cc1cc2c(cc1C)NC(=O)CC(C(F)(F)F)=N2`: -0.9%.
Then `O=C1NC(=O)N(c2cccc(Br)c2)C(=O)/C1=C/c1ccc(F)cc1`, with -9.5%; and `C=CCn1c(SCc2ccc(C(=O)OC)cc2)nc2sc(C)c(C)c2c1=O`, with 2.5%; and `Cc1cccn2c(=O)c(C=O)c(N3CCOCC3)nc12`, with 8.1%.
The same measure for `CCOc1ccc(Cl)cc1C=C1C(=O)NC(=S)NC1=O`: 15.7%; for `CCCN1C(=O)c2ccccc2NC1c1ccc(O)c(OCC)c1` (stereo unspecified): 15.9%.
With `Cc1cccc(-c2cc(C(=O)N3CCN(c4cccc(C)c4C)CC3)c3ccccc3n2)c1`, the displacement stood at 6.7%.
Then `Nc1ccc2nc(SCCOc3ccccc3)sc2c1`, with -7.2%; and `COc1cccc2cc(C(=O)Nc3cccc(C(=O)O)c3)c(=O)oc12`, with -3.5%; and `O=C(NCc1ccc(F)cc1)c1ccccc1I`, with 2.2%.
Then `COc1ccc(C(=O)Nc2ccccc2)cc1NS(=O)(=O)c1ccc(C(C)(C)C)cc1`, with -5%; and `O=C(Nc1ccccc1C(=O)O)c1ccc2ccccc2n1`, with -0.9%.
Then `O=C(O)c1ccc(/C=N/Nc2ccc([N+](=O)[O-])cc2)cc1`, with 10.8%; and `CCOC(=O)C1=C(O)/C(=C/c2ccc(N(C)C)cc2)SC1=Nc1ccc(Cl)cc1`, with 170%; and `CC1=C(C(=O)Nc2ccccc2)C(c2cccc(Cl)c2)NC(=S)N1` (stereo unspecified), with 6.8%.
In the case of `CCCCOc1ccc(NC(=O)CSc2nnc(-c3cccc(F)c3)n2-c2ccccc2)cc1`, the displacement worked out at 11.6%.
Then `Cc1cc(NC(=O)c2ccc(C)c([N+](=O)[O-])c2)no1`, with -8.5%; and `COc1cc2c(cc1NCc1ccc([N+](=O)[O-])cc1)oc1ccccc12`, with -8.4%.
Then `O=C(/C=C/c1c(Cl)cccc1Cl)Nc1ccccc1F`, with -3.3%.
